Reference: the supplement of paper PMC8285479
Where a name gives a salt, the structure may show the parent alone. ± gives the standard deviation of the averaged measurements. Whole data set: some 1,900 compounds, median “normalised cell viability (NPI; 0 = phenylarsine oxide control, 1 = DMSO control)” near 1, cut for the lowest 2% near 0.039. The list shows a part of the results.

Test system: NCI-H1944
Experiment: normalised cell viability (NPI; 0 = phenylarsine oxide control, 1 = DMSO control) (fraction of DMSO control); NCI-H1944 is a non-small cell lung cancer line; higher = more viable cells (less compound toxicity)
Settings: 6 days
[1] = glucocorticoid arm: hydrocortisone 2.75 uM co-treatment, compound 1 µM
[2] = glucocorticoid arm: hydrocortisone 2.75 uM co-treatment, compound 5 µM
[3] = glucocorticoid arm: hydrocortisone 2.75 uM pre-treated 2 days and continued, compound 1 µM
[4] = glucocorticoid arm: hydrocortisone 2.75 uM pre-treated 2 days and continued, compound 5 µM
[5] = glucocorticoid arm: vehicle, compound 1 µM
[6] = glucocorticoid arm: vehicle, compound 5 µM
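Also: CTB read-out in 384-well plates, mean of triplicate wells, normalised per plate against 1 µM phenylarsine oxide and 0.1% DMSO, compounds added 24 h after seeding.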

SMILES	normalised cell viability [1]	normalised cell viability [2]	normalised cell viability [3]	normalised cell viability [4]	normalised cell viability [5]	normalised cell viability [6]
CN1[C@@H]2CC[C@H]1C[C@@H](OC(=O)C(CO)c1ccccc1)C2 (stereo partly specified) [Atropine sulfate]	0.9843 ± 0.0045	0.945 ± 0.0076	0.994 ± 0.015	0.982 ± 0.04	1 ± 0.0095	1.003 ± 0.0058
CN1[C@@H]2CC[C@H]1C[C@@H](OC(=O)C(CO)c1ccccc1)C2 (stereo partly specified) [Atropine sulfate monohydrate]	1.03 ± 0.015	0.981 ± 0.017	1.03 ± 0.011	1.01 ± 0.021	1.01 ± 0.01	0.9913 ± 0.0015
c1ccc(C2CC2)c(OCC2=NCCN2)c1 [Cirazoline hydrochloride]	0.999 ± 0.011	0.99 ± 0.012	0.983 ± 0.014	0.971 ± 0.015	0.986 ± 0.0036	0.9877 ± 0.0074
CN1[C@@H]2CC[C@H]1C[C@@H](OC(c1ccccc1)c1ccccc1N)C2 (stereo partly specified) [Aminobenztropine]	0.9897 ± 0.0095	0.95533 ± 0.00058	0.9983 ± 0.0015	0.969 ± 0.0014	1.013 ± 0.0058	1.02 ± 0.049
NCC(CP(=O)(O)O)c1ccc(Cl)cc1 (stereo unspecified) [Phaclofen]	0.9913 ± 0.0025	0.981 ± 0.014	1.01 ± 0.013	0.9627 ± 0.0025	0.9813 ± 0.0038	0.992 ± 0.007
COc1ccc(C(CN(C)C)C2(O)CCCCC2)cc1 (stereo unspecified) [Venlafaxine]	1 ± 0.012	0.964 ± 0.032	1 ± 0.023	0.976 ± 0.019	1 ± 0.0087	0.9967 ± 0.0058
CCN(CCCl)Cc1ccccc1Br [DSP-4 hydrochloride]	1.01 ± 0.01	0.979 ± 0.015	1.013 ± 0.0058	0.9985 ± 0.0021	0.995 ± 0.0087	0.996 ± 0.0069
CNC(=O)Oc1ccc2c(c1)[C@]1(C)CCN(C)[C@@H]1N2C [(-)-Physostigmine]	1.01 ± 0.021	0.969 ± 0.0095	1 ± 0.031	0.952 ± 0.03	0.9947 ± 0.0031	0.984 ± 0.011
CN(C)C(=O)Oc1cccc([N+](C)(C)C)c1 [Neostigmine bromide]	0.9983 ± 0.0029	1.017 ± 0.0058	1.013 ± 0.0058	1.04 ± 0.072	0.992 ± 0.0027	0.9993 ± 0.0097
CC(N)c1cccc(Cl)c1Cl (racemic) [(±)-2,3-Dichloro-alpha-methylbenzylamine hydrochloride]	1.006 ± 0.0075	1.02 ± 0.011	1.003 ± 0.0064	1.013 ± 0.0058	0.9993 ± 0.0097	1.001 ± 0.0081
CNC(=O)OCC[N+](C)(C)C [Methylcarbamylcholine chloride]	1.005 ± 0.0087	1.023 ± 0.0058	1.01 ± 0.012	1.05 ± 0.069	1.003 ± 0.0058	1.013 ± 0.0058
Cc1sc2c(c1C)C(c1ccc(Cl)cc1)=N[C@@H](CC(=O)Nc1ccc(O)cc1)c1nnc(C)n1-2	0.995 ± 0.0087	1.02 ± 0.011	0.971 ± 0.011	0.994 ± 0.018	0.962 ± 0.023	0.772 ± 0.017
CP(=O)(O)CCCN	0.999 ± 0.011	1.007 ± 0.0058	0.996 ± 0.012	0.9995 ± 0.00071	0.984 ± 0.0066	0.983 ± 0.016
COc1ccc2c(c1OC)C(=O)OC2C1c2cc3c(cc2CCN1C)OCO3 (single isomer, unassigned; (+)) [(+)-Hydrastine]	0.999 ± 0.011	0.997 ± 0.011	0.993 ± 0.015	0.993 ± 0.019	1.013 ± 0.0058	1.01 ± 0.017
O=C1C=CC(=O)C=C1 [p-Benzoquinone]	1.007 ± 0.0058	1.01 ± 0.012	1.006 ± 0.0075	0.999 ± 0.03	1.01 ± 0.012	0.999 ± 0.011
CC1=NN=C(c2ccc(N)cc2)c2cc3c(cc2C1)OCO3	1.013 ± 0.0058	0.988 ± 0.01	1.01	1.01 ± 0.013	1.01	1.017 ± 0.0058
O=C(O)c1cc[c]([Hg][Cl])cc1 [4-Chloromercuribenzoic acid]	1.002 ± 0.0072	1.01 ± 0.015	0.863 ± 0.23	0.9995 ± 0.00071	0.9907 ± 0.008	1.003 ± 0.0064
C[C@H]1CNCCc2ccc(Cl)cc21 [Lorcaserin HCl]	1.003 ± 0.0064	1.02 ± 0.029	1 ± 0.019	1.02 ± 0.029	1.003 ± 0.0061	0.998 ± 0.0035
CC(=O)c1c(O)c(C)c(O)c(Cc2c(O)c3c(c(C(=O)/C=C/c4ccccc4)c2O)OC(C)(C)C=C3)c1O [Rottlerin]	1	1.04 ± 0.011	1.03 ± 0.023	1.02 ± 0.024	0.993 ± 0.0017	0.372 ± 0.55
CC(=O)[C@H]1CC[C@H]2[C@@H]3CC[C@H]4C[C@H](O)CC[C@]4(C)[C@H]3C(=O)C[C@]12C [5alpha-Pregnan-3alpha-ol-11,20-dione]	1.03 ± 0.01	1.05 ± 0.059	1.033 ± 0.0058	1.03 ± 0.015	1.023 ± 0.0058	1.04 ± 0.015
COc1ccccc1N1CCNCC1 [1-(2-Methoxyphenyl)piperazine hydrochloride]	0.996 ± 0.0017	1.01 ± 0.016	1.02 ± 0.022	1.01 ± 0.017	0.993 ± 0.0017	0.992 ± 0.007
C=C1C[C@@H]2[C@H](CC[C@]3(C)C(=O)CC[C@@H]23)[C@@]2(C)C=CC(=O)C=C12 [Exemestane]	0.821 ± 0.0056	1.06 ± 0.021	0.991 ± 0.0036	1.04 ± 0.01	0.303 ± 0.012	1.023 ± 0.0058
Cc1ccc(-n2nccn2)c(C(=O)N2CCN(c3nc4cc(Cl)ccc4o3)CC[C@H]2C)c1 [Suvorexant (MK-4305)]	1.03 ± 0.03	1.02 ± 0.022	1.04 ± 0.017	0.996 ± 0.016	1.01	1.002 ± 0.007
CCCN1CCO[C@@H]2c3cc(O)ccc3OC[C@H]21 (racemic) [(±)-PD 128,907 hydrochloride]	1.002 ± 0.0072	0.976 ± 0.013	1.03 ± 0.064	1 ± 0.016	1.007 ± 0.0058	0.999 ± 0.001
CCCN1CCO[C@@H]2c3cc(O)ccc3OC[C@H]21	1.02 ± 0.017	1.04 ± 0.021	1.01 ± 0.01	1.02 ± 0.021	0.995 ± 0.0044	1.001 ± 0.0078
CCCN1CCO[C@@H]2c3cc(O)ccc3OC[C@H]21 [S(+)-PD 128,907 hydrochloride]	0.976 ± 0.014	0.958 ± 0.026	0.862 ± 0.21	0.969 ± 0.021	0.98 ± 0.0062	0.9823 ± 0.0035
